The antibiotic and cytotoxicity screens of Wong et al. (2023)
The other results are listed elsewhere or left out.

What was measured:
[1] = test system: HSkMC (human skeletal muscle cells); assay: cytotoxicity call (relative viability < 0.9); conditions: 10 µM
[2] = test system: HepG2; assay: cytotoxicity call (relative viability < 0.9); conditions: 10 µM
[3] = test system: S. aureus RN4220; assay: growth inhibition call (relative growth <= 0.2); conditions: 50 µM

Row | Compound | cytotoxicity call [1] | cytotoxicity call [2] | growth inhibition call [3]
1 | C[C@@H]1CN([C@@H](C)CO)C(=O)c2cc(NC(=O)Nc3ccc4c(c3)OCO4)ccc2O[C@@H](C)CCCCO[C@@H]1CN(C)Cc1ccccc1 | inactive | active | inactive
2 | CC1(C)CC[C@]2(C(=O)O[C@@H]3O[C@H](CO)[C@@H](O)[C@H](O)[C@H]3O)CC[C@]3(C)C(=CC[C@H]4[C@@]5(C)CC[C@@H](O[C@@H]6O[C@H](C(=O)O)[C@@H](O[C@@H]7OC[C@@H](O)[C@H](O)[C@H]7O)[C@H](O[C@@H]7OC[C@](O)(CO)[C@H]7O)[C@H]6O)C(C)(C)[C@@H]5CC[C@]43C)[C@@H]2C1 | inactive | inactive | inactive
3 | CC(C)NC(=O)N(C)C[C@@H]1Oc2c(NS(=O)(=O)c3ccccc3)cccc2C(=O)N([C@@H](C)CO)C[C@H]1C | inactive | inactive | inactive
4 | C[C@@H](NC(=O)C[C@H]1C=C[C@H](NC(=O)CN2CCOCC2)[C@H](CO)O1)c1ccccc1 | inactive | inactive | inactive
5 | C[C@H](CO)N1C[C@H](C)[C@H](CN(C)Cc2ccc3c(c2)OCO3)Oc2ccc(NC(=O)C3CC3)cc2C1=O | inactive | inactive | inactive
6 | C[C@@H]1CN([C@H](C)CO)C(=O)Cc2cc(NS(=O)(=O)c3cn(C)cn3)ccc2O[C@@H]1CN(C)Cc1ccncc1 | inactive | inactive | inactive
7 | COc1ccc2[nH]c(=O)[nH]c(=O)c2c1 | inactive | active | active
8 | C[C@H](CO)N1C[C@H](C)[C@@H](CN(C)C(=O)Cc2ccccc2)OCCCC[C@H](C)Oc2ccc(NS(=O)(=O)c3ccc(Cl)cc3)cc2C1=O | inactive | inactive | inactive
9 | C[C@@H]1CN([C@@H](C)CO)C(=O)c2c(c3ccccc3n2C)-c2ccccc2CO[C@H]1CN(C)C(=O)Nc1cccc(Cl)c1Cl | inactive | inactive | inactive
10 | CC(C)=CCCC(C)=CCO | inactive | active | inactive
11 | C[C@@H]1CCCCO[C@@H](CN(C)C(=O)Nc2ccc(F)cc2)[C@@H](C)CN([C@H](C)CO)C(=O)c2cc(NS(=O)(=O)c3ccccc3)ccc2O1 | inactive | inactive | inactive
12 | CC1(C)C=Cc2c(c3c(c4c(=O)c(-c5ccc(O)c(O)c5)coc24)OC(C)(C)CC3)O1 | inactive | active | inactive
13 | CN(C)CC(=O)N[C@H]1CC[C@@H](CCNC(=O)C2CCC2)O[C@@H]1CO | inactive | inactive | inactive
14 | C[C@H]1CCCCO[C@@H](CN(C)S(=O)(=O)c2cn(C)cn2)[C@@H](C)CN([C@@H](C)CO)C(=O)c2cc(NS(=O)(=O)c3ccccc3)ccc2O1 | inactive | inactive | inactive
15 | C[C@H](CO)N1C[C@H](C)[C@H](CN(C)C(=O)Cc2ccccc2)OCCCC[C@H](C)Oc2ccc(NC(=O)C3CCCCC3)cc2C1=O | inactive | inactive | inactive
16 | Cc1cc(CN)cc(C)c1NC(=O)c1ccc(-c2cc(Cl)ccc2Cl)o1 | active | active | active
17 | C[C@H]1CN([C@@H](C)CO)C(=O)c2c(c3ccccc3n2C)-c2ccccc2CO[C@H]1CN(C)S(=O)(=O)c1cn(C)cn1 | inactive | inactive | inactive
18 | O=C(C[C@H]1C=C[C@H](NS(=O)(=O)c2ccccc2F)[C@H](CO)O1)NCCCN1CCOCC1 | inactive | inactive | inactive
19 | C[C@@H]1CCCCO[C@@H](CN(C)S(=O)(=O)c2ccccc2)[C@H](C)CN([C@@H](C)CO)C(=O)c2cc(NC(=O)NC3CCCCC3)ccc2O1 | inactive | inactive | inactive
20 | COc1ccc(NC(=O)N(C)C[C@H]2Oc3ccc(NS(=O)(=O)c4c(C)noc4C)cc3CC(=O)N([C@H](C)CO)C[C@@H]2C)cc1 | inactive | inactive | inactive
21 | COc1ccc(NC(=O)N(C)C[C@@H]2OCCCC[C@@H](C)Oc3ccc(NS(=O)(=O)c4ccccc4)cc3C(=O)N([C@H](C)CO)C[C@H]2C)cc1 | inactive | inactive | inactive
22 | COc1ccc(S(=O)(=O)Nc2ccc3c(c2)C(=O)N([C@@H](C)CO)C[C@H](C)[C@@H](CN(C)C(=O)NC2CCCCC2)OCCCC[C@H](C)O3)cc1 | inactive | inactive | inactive
23 | COc1cccc(-c2ccc3c(c2)O[C@@H](CN(C)C(=O)C2CCOCC2)[C@H](C)CN([C@@H](C)CO)S3(=O)=O)c1 | inactive | inactive | inactive
24 | COc1ccc(NC(=O)Nc2cccc3c2O[C@H](CN(C)Cc2ccc(C(=O)Nc4ccccc4N)cc2)[C@@H](C)CN([C@H](C)CO)C3=O)cc1 | inactive | inactive | inactive
25 | C[C@@H]1CCCCO[C@@H](CN(C)C(=O)Nc2cccc3ccccc23)[C@H](C)CN([C@@H](C)CO)C(=O)c2cc(N(C)C)ccc2O1 | inactive | inactive | inactive
26 | C[C@@H]1CN([C@@H](C)CO)S(=O)(=O)c2ccc(-c3ccc(F)cc3)cc2O[C@@H]1CN(C)C(=O)C1CCOCC1 | inactive | inactive | inactive
27 | CCNC(=O)C[C@H]1C=C[C@H](NC(=O)C2CCOCC2)[C@H](CO)O1 | inactive | inactive | inactive

Row | Compound | cytotoxicity call [1] | cytotoxicity call [2] | growth inhibition call [3]
28 | CC(C)(C)c1ccc(CSCc2nc3ccccc3[nH]2)cc1 | inactive | active | inactive
29 | CN(C)C(=O)c1cccc(-c2cccc(-c3nc(C(=O)NCc4ccccc4)cc4c3[C@@H](CCO)N([S@](=O)C(C)(C)C)C4)c2)c1 | inactive | inactive | inactive
30 | C[C@@H]1CN([C@H](C)CO)C(=O)c2cccc(NC(=O)c3ccncc3)c2O[C@@H]1CN(C)S(=O)(=O)c1cn(C)cn1 | inactive | inactive | inactive
31 | CN(C)CCCNC(=O)C[C@H]1C=C[C@H](NC(=O)Cc2cccnc2)[C@@H](CO)O1 | inactive | inactive | inactive
32 | CN(C)C(=O)C[C@H]1CC[C@@H]2[C@@H](COc3ccc(NS(=O)(=O)c4cccc(F)c4)cc3C(=O)N2C)O1 | inactive | inactive | inactive
33 | CC[C@@H]1COCCC(=O)N1 | inactive | inactive | inactive
34 | C[C@@H]1CN([C@@H](C)CO)C(=O)CCCn2cc(nn2)CO[C@@H]1CN(C)Cc1ccc(C(=O)Nc2ccccc2N)cc1 | inactive | inactive | inactive
35 | C[C@H](CO)N1C[C@H](C)[C@H](CN(C)S(=O)(=O)c2ccc(F)cc2)OCCCC[C@H](C)Oc2ccc(NC(=O)CCC(F)(F)F)cc2C1=O | inactive | inactive | inactive
36 | Cc1noc(C)c1NC(=O)Nc1ccc2c(c1)C(=O)N([C@@H](C)CO)C[C@H](C)[C@@H](CN(C)S(=O)(=O)c1ccc(F)cc1)OCCCC[C@@H](C)O2 | inactive | inactive | inactive
37 | C[C@@H]1CN([C@@H](C)CO)C(=O)c2cccc(NC(=O)C3CCOCC3)c2O[C@H]1CN(C)S(=O)(=O)c1cccs1 | inactive | inactive | inactive
38 | C[C@H]1CN([C@@H](C)CO)C(=O)c2cccc(NS(=O)(=O)c3cn(C)cn3)c2O[C@H]1CN(C)Cc1ccccc1 | inactive | inactive | inactive
39 | Cc1noc(C)c1S(=O)(=O)N(C)C[C@@H]1Oc2c(NC(=O)C3CC3)cccc2C(=O)N([C@H](C)CO)C[C@@H]1C | inactive | inactive | inactive
40 | COc1ccc(S(=O)(=O)N(C)C[C@H]2OCCCC[C@@H](C)Oc3ccc(NC(=O)Nc4ccc(C(F)(F)F)cc4)cc3C(=O)N([C@@H](C)CO)C[C@@H]2C)cc1 | active | inactive | inactive
41 | COc1ccc([Si](C)(C)[C@H]2[C@H](CC(=O)N3Cc4ccccc4C[C@H]3CO)O[C@@]3(C(=O)N(C)c4c(Br)cc(C)cc43)[C@@H]2C)cc1 | active | inactive | inactive
42 | COc1ccccc1CN(C)C[C@H]1OCc2ccccc2-c2c(n(C)c3ccccc23)C(=O)N([C@H](C)CO)C[C@@H]1C | inactive | active | inactive
43 | Cc1noc(C)c1NC(=O)Nc1ccc2c(c1)C(=O)N([C@@H](C)CO)C[C@@H](C)[C@H](CN(C)C(=O)c1ccccc1)OCCCC[C@@H](C)O2 | inactive | inactive | inactive
44 | C[C@@H]1CN([C@@H](C)CO)C(=O)Cc2cc(NC(=O)C3CC3)ccc2O[C@H]1CN(C)S(=O)(=O)c1ccc(Cl)cc1 | inactive | inactive | inactive
45 | CCC(C=CC(C)C1CCC2C3CCC4=CC(=O)CCC4(C)C3CCC12C)C(C)C (centres undefined) | inactive | inactive | inactive
46 | C[C@@H]1CCCCO[C@@H](CN(C)C(=O)Nc2ccc(F)cc2)[C@@H](C)CN([C@H](C)CO)C(=O)c2cc(NC(=O)Cc3ccccc3)ccc2O1 | inactive | inactive | inactive
47 | COc1ccc(S(=O)(=O)N(C)C[C@@H]2Oc3ccc(NC(=O)C4CC4)cc3C(=O)N([C@H](C)CO)C[C@H]2C)cc1 | inactive | inactive | inactive
48 | C[C@@H]1CN([C@@H](C)CO)C(=O)Cc2cc(NC(=O)Nc3ccc(C(F)(F)F)cc3)ccc2O[C@@H]1CN(C)S(=O)(=O)c1ccc(Cl)cc1 | active | active | inactive
49 | C[C@@H]1CN([C@H](C)CO)C(=O)c2cc(NC(=O)Nc3ccc(C(F)(F)F)cc3)ccc2O[C@@H]1CN(C)C(=O)Nc1ccc(C(F)(F)F)cc1 | inactive | inactive | inactive
50 | C[C@H](CO)N1C[C@H](C)[C@H](CN(C)S(=O)(=O)c2ccccc2)Oc2ccc(NS(=O)(=O)c3cn(C)cn3)cc2C1=O | inactive | inactive | inactive
51 | CCC[C@@]1(CCc2ccccc2)CC(=O)[C@@H]([C@H](CC)c2cccc(NS(=O)(=O)c3ccc(C(F)(F)F)cn3)c2)C(=O)O1 | inactive | inactive | inactive
52 | O=C1NC(=O)NC2(N1)C(=O)Nc1ccccc12 | inactive | inactive | inactive
53 | O=c1cc(-c2ccc(O)cc2)oc2cc(O)cc(O)c12 | inactive | inactive | inactive
